# Experimental data reported in the supplement of paper PMC8728848.
# This is one part of the list.
# Key:
# Assay in all cases: glycan array binding signal (z-score within array); higher = stronger binding
# Details in all cases: glycan notation: IUPAC condensed, linker removed
# Gal3S(b1-4)Glc = molecular target: Gal3S(b1-4)Glc
# Summary of the method: (§1)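 Glycan array data were curated from 3228 arrays in the Consortium for Functional Glycomics database and kept only where the protein sequence was available. Glycan names were converted to IUPAC-condensed notation, and columns mapping to the same glycan were averaged. The binding signal is a within-array Z-score, averaged across arrays of the same protein sequence at different concentrations or buffers and across linkers. Negative Z-scores can be read as non-binding.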
# Gal3S(b1-4)Glc6S = molecular target: Gal3S(b1-4)Glc6S
# Summary of the method: as §1
# Gal3S(b1-4)GlcNAc = molecular target: Gal3S(b1-4)GlcNAc
# Summary of the method: as §1
# [1] = molecular target: Gal3S(b1-4)[Fuc(a1-3)]Glc6S
# Summary of the method: as §1
# [2] = molecular target: Gal3S(b1-4)[Fuc(a1-3)]GlcNAc
# Summary of the method: as §1
# [3] = molecular target: Gal3S(b1-4)[Fuc(a1-3)]GlcNAc6S
# Summary of the method: as §1
# Gal3S4S(b1-4)GlcNAc = molecular target: Gal3S4S(b1-4)GlcNAc
# Summary of the method: as §1
# Gal3S6S(b1-4)GlcNAc = molecular target: Gal3S6S(b1-4)GlcNAc
# Summary of the method: as §1
# Gal3S6S(b1-4)GlcNAc6S = molecular target: Gal3S6S(b1-4)GlcNAc6S
# Summary of the method: as §1
# Gal4S(b1-4)GlcNAc = molecular target: Gal4S(b1-4)GlcNAc
# Summary of the method: as §1
# Gal4S6S(b1-4)GlcNAc = molecular target: Gal4S6S(b1-4)GlcNAc
# Summary of the method: as §1
# Gal6P(b1-4)GlcNAc = molecular target: Gal6P(b1-4)GlcNAc
# Summary of the method: as §1
# Gal6S(b1-3)GlcNAc = molecular target: Gal6S(b1-3)GlcNAc
# Summary of the method: as §1
# Gal6S(b1-3)GlcNAc6S = molecular target: Gal6S(b1-3)GlcNAc6S
# Summary of the method: as §1
# Gal6S(b1-4)Glc = molecular target: Gal6S(b1-4)Glc
# Summary of the method: as §1
# Gal6S(b1-4)Glc6S = molecular target: Gal6S(b1-4)Glc6S
# Summary of the method: as §1
# Gal6S(b1-4)GlcNAc = molecular target: Gal6S(b1-4)GlcNAc
# Summary of the method: as §1
# Gal6S(b1-4)GlcNAc6S = molecular target: Gal6S(b1-4)GlcNAc6S
# Summary of the method: as §1
# GalNAc(a1-3)Gal = molecular target: GalNAc(a1-3)Gal
# Summary of the method: as §1
# GalNAc(a1-3)GalNAc = molecular target: GalNAc(a1-3)GalNAc
# Summary of the method: as §1
# [4] = molecular target: GalNAc(a1-3)GalNAc(b1-3)Gal(a1-4)Gal(b1-4)Glc
# Summary of the method: as §1
# [5] = molecular target: GalNAc(a1-3)GalNAc(b1-3)Gal(a1-4)Gal(b1-4)GlcNAc
# Summary of the method: as §1
# GalNAc(b1-3)Gal = molecular target: GalNAc(b1-3)Gal
# Summary of the method: as §1
# [6] = molecular target: GalNAc(b1-3)Gal(a1-4)Gal(b1-4)GlcNAc
# Summary of the method: as §1
# [7] = molecular target: GalNAc(b1-3)Gal(a1-4)Gal(b1-4)GlcNAc(b1-3)Gal(b1-4)Glc
# Summary of the method: as §1
# [8] = molecular target: GalNAc(b1-3)Gal(a1-6)Gal(b1-4)Glc
# Summary of the method: as §1
# GalNAc(b1-3)GalNAc = molecular target: GalNAc(b1-3)GalNAc
# Summary of the method: as §1
# GalNAc(b1-3)GlcNAc = molecular target: GalNAc(b1-3)GlcNAc
# Summary of the method: as §1
# GalNAc(b1-4)Gal(b1-4)Glc = molecular target: GalNAc(b1-4)Gal(b1-4)Glc
# Summary of the method: as §1
# GalNAc(b1-4)GlcNAc = molecular target: GalNAc(b1-4)GlcNAc
# Summary of the method: as §1
# [9] = molecular target: GalNAc(b1-4)GlcNAc(b1-2)Man
# Summary of the method: as §1
# [10] = molecular target: GalNAc(b1-4)GlcNAc(b1-2)Man(a1-3)[GalNAc(b1-4)GlcNAc(b1-2)Man(a1-6)]Man(b1-4)GlcNAc(b1-4)GlcNAc
# Summary of the method: as §1
# [11] = molecular target: GalNAc(b1-4)GlcNAc(b1-3)GalNAc(b1-4)GlcNAc
# Summary of the method: as §1
# GalNAc(b1-4)GlcNAc6S = molecular target: GalNAc(b1-4)GlcNAc6S
# Summary of the method: as §1
# GalNAc(b1-6)GalNAc = molecular target: GalNAc(b1-6)GalNAc
# Summary of the method: as §1
# GalNAc3S(b1-4)GlcNAc = molecular target: GalNAc3S(b1-4)GlcNAc
# Summary of the method: as §1
# GalNAc3S(b1-4)GlcNAc3S = molecular target: GalNAc3S(b1-4)GlcNAc3S
# Summary of the method: as §1
# [12] = molecular target: GalNAc3S(b1-4)[Fuc(a1-3)]GlcNAc
# Summary of the method: as §1
# GalNAc4S6S(b1-4)GlcNAc = molecular target: GalNAc4S6S(b1-4)GlcNAc
# Summary of the method: as §1
# GalNAc6S(b1-4)GlcNAc = molecular target: GalNAc6S(b1-4)GlcNAc
# Summary of the method: as §1
# Glc(a1-4)Glc = molecular target: Glc(a1-4)Glc
# Summary of the method: as §1
# [13] = molecular target: Glc(a1-4)Glc(a1-4)Glc(a1-4)Glc
# Summary of the method: as §1
# Glc(a1-6)Glc(a1-6)Glc = molecular target: Glc(a1-6)Glc(a1-6)Glc
# Summary of the method: as §1
# [14] = molecular target: Glc(a1-6)Glc(a1-6)Glc(a1-6)Glc
# Summary of the method: as §1
# Glc(b1-4)Glc = molecular target: Glc(b1-4)Glc
# Summary of the method: as §1
binder,measurement,setting,value
AidA (Burkholderia cenocepacia) (protein) MSRVTDVLVSFDTETILKKYPNPSKNPAAPTLIDWRYVYMVTNQDNVISGQAGGELDLKAQVGDLIRWRETSLSLGFENQVVFYKFIGNVGNDLISTPTPRVAEASIPVPNTSKPEVPTCQKVANYYWSSECLKVGRVTYHFQFQIIDRNCQSQGCFSWDPFISIHN,glycan array binding signal (z-score),Gal3S(b1-4)Glc,-0.068
same,glycan array binding signal (z-score),Gal3S(b1-4)Glc6S,-0.072
same,glycan array binding signal (z-score),Gal3S(b1-4)GlcNAc,-0.063
same,glycan array binding signal (z-score),[1],2.38
same,glycan array binding signal (z-score),[2],-0.437
same,glycan array binding signal (z-score),[3],0.053
same,glycan array binding signal (z-score),Gal3S4S(b1-4)GlcNAc,-0.443
same,glycan array binding signal (z-score),Gal3S6S(b1-4)GlcNAc,-0.009
same,glycan array binding signal (z-score),Gal3S6S(b1-4)GlcNAc6S,0.334
same,glycan array binding signal (z-score),Gal4S(b1-4)GlcNAc,0.016
same,glycan array binding signal (z-score),Gal4S6S(b1-4)GlcNAc,0.938
same,glycan array binding signal (z-score),Gal6P(b1-4)GlcNAc,-0.562
same,glycan array binding signal (z-score),Gal6S(b1-3)GlcNAc,0.725
same,glycan array binding signal (z-score),Gal6S(b1-3)GlcNAc6S,-0.324
same,glycan array binding signal (z-score),Gal6S(b1-4)Glc,-0.117
same,glycan array binding signal (z-score),Gal6S(b1-4)Glc6S,-0.308
same,glycan array binding signal (z-score),Gal6S(b1-4)GlcNAc,0.628
same,glycan array binding signal (z-score),Gal6S(b1-4)GlcNAc6S,-0.704
same,glycan array binding signal (z-score),GalNAc(a1-3)Gal,0.384
same,glycan array binding signal (z-score),GalNAc(a1-3)GalNAc,-0.507
same,glycan array binding signal (z-score),[4],0.288
same,glycan array binding signal (z-score),[5],-0.323
same,glycan array binding signal (z-score),GalNAc(b1-3)Gal,0.1
same,glycan array binding signal (z-score),[6],1.03
same,glycan array binding signal (z-score),[7],-0.049
same,glycan array binding signal (z-score),[8],-0.129
same,glycan array binding signal (z-score),GalNAc(b1-3)GalNAc,-0.617
same,glycan array binding signal (z-score),GalNAc(b1-3)GlcNAc,-0.115
same,glycan array binding signal (z-score),GalNAc(b1-4)Gal(b1-4)Glc,0.236
same,glycan array binding signal (z-score),GalNAc(b1-4)GlcNAc,1.43
same,glycan array binding signal (z-score),[9],0.445
same,glycan array binding signal (z-score),[10],1.26
same,glycan array binding signal (z-score),[11],-0.139
same,glycan array binding signal (z-score),GalNAc(b1-4)GlcNAc6S,-0.748
same,glycan array binding signal (z-score),GalNAc(b1-6)GalNAc,-0.239
same,glycan array binding signal (z-score),GalNAc3S(b1-4)GlcNAc,0.333
same,glycan array binding signal (z-score),GalNAc3S(b1-4)GlcNAc3S,-0.433
same,glycan array binding signal (z-score),[12],-0.28
same,glycan array binding signal (z-score),GalNAc4S6S(b1-4)GlcNAc,-0.374
same,glycan array binding signal (z-score),GalNAc6S(b1-4)GlcNAc,-0.593
same,glycan array binding signal (z-score),Glc(a1-4)Glc,0.105
same,glycan array binding signal (z-score),[13],-0.244
same,glycan array binding signal (z-score),Glc(a1-6)Glc(a1-6)Glc,-1.29
same,glycan array binding signal (z-score),[14],-0.597
same,glycan array binding signal (z-score),Glc(b1-4)Glc,-0.677
